Assay results from PubChem BioAssay AID1347165 (National Center for Advancing Translational Sciences (NCATS), 2019).
In all, about 220,000 compounds went through this assay and about 5,700 (2.6%) were called active. The inconclusive results got no clear call from the source; some entries with a clear call stand among them for comparison. The call rests on the fitted dose curve; in most records, active means well fitted inhibition curve with a large enough effect; inconclusive means small, poorly fitted or top-dose-only effect; inactive means no such curve, though single readings can be large or run the other way. Where the call is inconclusive, the potency comes from a doubtful curve fit.

target: Lysine-specific demethylase 5B (Homo sapiens) (UniProt Q9UGL1); assay: Primary screen for KDM5B Histone Demethylases FDH-coupled qHTS; conditions: FDH-coupled NADH fluorescence (FDH is formaldehyde dehydrogenase); activity change, negative = inhibition: at 57.7 µM (top of the series) unless noted; further: nearly all actives have a fitted effect of over 70% in size; on activity change, negative = inhibition: 0% is about no effect
In short: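 qHTS format, multiple compound concentrations. Buffer 50 mM HEPES pH 7.5/0.01% Tween-20; 200 nM KDM5BΔAP final; 10 min compound preincubation; substrate-mix levels 12.5 µM peptide, 25 µM α-KG, 0.25 mM NAD⁺; 30 min RT; ΔRFU.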
Potency means the concentration at half of the fitted maximal effect; tags describe the fitted curve by direction and shape.

UniProt Q9UGL1, sequence (Q9UGL1 whole entry, looked up): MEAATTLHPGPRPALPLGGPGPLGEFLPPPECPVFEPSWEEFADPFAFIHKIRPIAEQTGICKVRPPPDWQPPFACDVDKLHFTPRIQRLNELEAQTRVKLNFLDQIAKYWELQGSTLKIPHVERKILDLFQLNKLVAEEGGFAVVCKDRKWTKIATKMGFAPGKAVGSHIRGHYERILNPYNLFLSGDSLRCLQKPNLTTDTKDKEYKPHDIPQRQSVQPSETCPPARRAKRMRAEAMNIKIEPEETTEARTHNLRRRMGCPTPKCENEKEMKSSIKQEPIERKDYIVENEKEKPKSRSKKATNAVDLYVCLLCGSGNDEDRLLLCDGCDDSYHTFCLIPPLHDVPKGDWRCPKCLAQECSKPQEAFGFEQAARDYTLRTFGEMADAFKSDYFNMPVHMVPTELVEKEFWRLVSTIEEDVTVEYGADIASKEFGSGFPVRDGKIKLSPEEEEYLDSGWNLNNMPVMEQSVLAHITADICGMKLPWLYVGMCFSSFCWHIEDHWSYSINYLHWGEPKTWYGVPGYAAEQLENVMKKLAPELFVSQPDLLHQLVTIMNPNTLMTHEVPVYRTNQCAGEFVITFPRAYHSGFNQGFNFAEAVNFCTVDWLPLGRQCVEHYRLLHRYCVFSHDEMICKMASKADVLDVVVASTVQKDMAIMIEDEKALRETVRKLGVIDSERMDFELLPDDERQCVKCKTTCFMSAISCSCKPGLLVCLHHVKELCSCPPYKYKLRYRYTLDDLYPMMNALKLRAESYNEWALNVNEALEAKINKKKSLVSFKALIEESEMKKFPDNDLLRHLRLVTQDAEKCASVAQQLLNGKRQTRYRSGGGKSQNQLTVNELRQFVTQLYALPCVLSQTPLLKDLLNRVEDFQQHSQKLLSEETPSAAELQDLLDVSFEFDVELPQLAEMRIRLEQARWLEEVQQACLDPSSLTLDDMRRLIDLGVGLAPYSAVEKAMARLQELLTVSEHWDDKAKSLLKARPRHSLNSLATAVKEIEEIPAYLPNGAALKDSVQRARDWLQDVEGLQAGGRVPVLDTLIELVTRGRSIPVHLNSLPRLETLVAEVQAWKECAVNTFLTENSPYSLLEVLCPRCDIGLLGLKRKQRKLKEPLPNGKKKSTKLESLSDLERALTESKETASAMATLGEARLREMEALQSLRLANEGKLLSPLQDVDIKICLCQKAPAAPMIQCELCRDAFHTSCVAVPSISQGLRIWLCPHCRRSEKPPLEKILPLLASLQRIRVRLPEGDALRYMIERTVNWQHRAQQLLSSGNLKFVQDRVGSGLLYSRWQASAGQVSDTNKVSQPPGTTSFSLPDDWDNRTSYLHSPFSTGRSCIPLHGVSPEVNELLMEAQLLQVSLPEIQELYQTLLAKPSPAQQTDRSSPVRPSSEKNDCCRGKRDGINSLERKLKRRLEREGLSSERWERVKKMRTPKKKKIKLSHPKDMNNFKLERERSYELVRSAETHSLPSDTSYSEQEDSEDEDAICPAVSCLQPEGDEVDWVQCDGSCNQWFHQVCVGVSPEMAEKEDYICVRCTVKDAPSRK

Row | Compound | activity change, negative = inhibition | Potency
1 | COc1ccc(CN(C(=O)c2ccc(S(=O)(=O)N(C)C)cc2)C(C)Cc2cccs2)cc1 (configuration not stated) | inactive: -3.73% | 
2 | Cc1ccccc1C(=O)Oc1ccc(OCc2ccccc2)cc1 | inactive: -9.84% | 
3 | Cc1ccccc1Cn1cc(-c2ccncc2)cc1C(=O)NC(C)c1ccccn1 (configuration not stated) |  | active: 31.6 µM
4 | COc1ccccc1/C=C/C(=O)OCC(=O)N1c2ccccc2CC1C (configuration not stated) |  | inconclusive: 28.2 µM [inhibitor, partial curve, poor fit]
5 | O=C(c1cccc(Cl)c1)N1CCC(N2CCCCCC2=O)CC1 | inactive: 10.4% [at 86.2 µM] | 
6 | O=C(c1ccc2nc[nH]c2c1)N1CCCC2(C1)Nc1cccnc1NC2=NC1CCCC1 (configuration not stated) |  | active: 28.2 µM
7 | O=C1NCCCCCCN(C(=O)c2cccs2)[C@H]2C[C@H](c3nc(-c4cnccn4)no3)C[C@@H]12 | inactive: -16.1% | 
8 | Cc1ccc(CNC(=O)CSc2ncc(S(=O)(=O)c3ccc(Br)cc3)c(=O)[nH]2)cc1 | inactive: -6.01% | 
9 | COc1ccc(-c2nc3cc(NC(=O)c4ccc(C)cc4)ccc3o2)cc1OC |  | inconclusive: 39.8 µM [inhibitor, single point]
10 | COc1ccc(NS(=O)(=O)c2ccc3c(c2)C(C(C)C)C(=O)N3)cc1 (configuration not stated) |  | inconclusive: 2.51 µM [inhibitor, partial curve, poor fit]
11 | CCc1nn(CC(=O)NCCC(C)C)c(=O)c2cc3occc3n12 | inconclusive: -41.4% [inhibitor] | 
12 | CNc1ccc(OC2CCN(C(=O)NCCc3ccccc3)CC2)nc1 |  | active: 28.2 µM
13 | CC(C)C(=O)Nc1ccc2c(C(C(=O)O)N3CCN(c4cccc(Cl)c4)CC3)c[nH]c2c1 (configuration not stated) | inactive: 2.87% | 
14 | N#Cc1ccc(OCC(O)CNCCC2=CCCCC2)cc1 (configuration not stated) | inactive: 23.8% | 
15 | Cc1nccc(N2CCC(COc3ccc4c(cnn4CC[S+](C)(=O)[O-])c3)CC2)n1 | inactive: -9.55% [at 86.2 µM] | 
16 | O=C(NCCCSc1ccccc1)c1cc(Cl)ccc1O |  | inconclusive: 35.5 µM [inhibitor, partial curve, poor fit]
17 | Cc1noc(C)c1-c1cnc(Nc2ccc(CN3CCN(C)CC3)cc2)c2c1CCO2 |  | active: 25.1 µM
18 | O=C(c1cc2c(s1)CCCC2)N1CCc2c(nc3cc[nH]n3c2=O)C1 |  | inconclusive: 14.1 µM [inhibitor, partial curve, poor fit]
19 | Cc1ccc(C(=O)N2CCn3c(nnc3C3CCNCC3)C2)cc1 |  | inconclusive: 50.1 µM [inhibitor, partial curve]
20 | Cc1nnsc1C(=O)N[C@H]1CCN(C(=O)c2ccco2)[C@H](C(=O)N[C@H](Cc2c[nH]c3ccccc23)C(N)=O)C1 |  | inconclusive: 20 µM [inhibitor, partial curve]
21 | CC(=O)Nc1cccc(-c2nccc3c(=O)cc(N4CCOCC4)oc23)c1 |  | active: 35.5 µM
22 | COc1ccc(CNC(=O)c2cc(=O)c(OCc3ccccc3F)co2)cc1 | inactive: 7.12% | 
23 | Cc1cc(C)c(CN2CCC(n3cc(C(C)(C)N)nn3)CC2)c(C)c1 | inactive: -19.1% | 
24 | CC(C)CCN(C)Cc1ccc(F)cc1 |  | inconclusive: 141 µM [inhibitor, single point]

Row | Compound | activity change, negative = inhibition | Potency
25 | O=c1n(-c2ccc([N+](=O)[O-])cc2)nc2n1CCN(Cc1ccsc1)C2 |  | inconclusive: 35.5 µM [inhibitor, partial curve, poor fit]
26 | COc1cc(S(=O)(=O)Nc2ccc(S(C)(=O)=O)cc2)ccc1NC(C)=O | inactive: 13.9% | 
27 | COc1ccc(-n2nc3c(N4CCC(C(=O)NCc5cccc(F)c5)CC4)nnc(C)c3c2C)cc1 |  | inconclusive: 25.1 µM [inhibitor, partial curve, poor fit]
28 | Cc1ccc(NC(=O)N2C[C@H](c3nc(-c4cccnc4)no3)[C@@H](C)C2)cc1 | inactive: -6.55% | 
29 | Cc1c(C)n(Cc2ccccc2)c2ccc(C(=O)NCc3ccccc3F)cc12 |  | inconclusive: 28.2 µM [inhibitor, partial curve, poor fit]
30 | Cc1ccc2c(=O)c(-c3nc(-c4ccc(Cl)cc4)no3)cn(CC(=O)NCc3ccco3)c2n1 |  | inconclusive: 39.8 µM [inhibitor, single point]
31 | CCc1ccc(C(=O)COC(=O)Cc2ccsc2)cc1 | inactive: 25.7% | 
32 | COc1cccc(CNC2CCCc3nc(-c4cccnc4)ncc32)c1 (configuration not stated) | inactive: -16.9% | 
33 | Cc1cc(C(=O)OCC(=O)c2cc(C)n(C)c2C)c2ccccc2n1 |  | inconclusive: 39.8 µM [inhibitor, single point]
34 | COc1ccc(-c2nc(C#N)c(NCc3ccco3)o2)cc1 |  | inconclusive: 1.78 µM [inhibitor, partial curve, poor fit]
35 | Cc1ccc(C2Cn3nnc(-c4noc(-c5ccccc5Cl)n4)c3CO2)cc1 (configuration not stated) | inactive: -8.2% | 
36 | CC(C)Cn1nc(C(=O)NN2C(=O)NC(c3ccccc3)(c3ccccc3)C2=O)c2ccccc2c1=O | inactive: -17.4% | 
37 | COc1ccc(C2C=C(c3ccc(F)cc3)Nc3nc(-c4ccc(Cl)cc4)nn32)cc1 (configuration not stated) |  | inconclusive: 44.7 µM [inhibitor, single point]
38 | COc1ccc(-n2c(SCC(=O)N3CCCc4ccccc43)nc3c(c2=O)SCC3)cc1 | inactive: -8.66% | 
39 | CCc1ccc(NC(=O)CCn2c(-c3ccc(OC)cc3)cc(C(C)=O)c2C)cc1 |  | inconclusive: 39.8 µM [inhibitor, single point]
40 | Cc1nonc1CN1CCN(C(C(=O)O)c2c[nH]c3cc(Br)ccc23)CC1 (configuration not stated) | inactive: -8.03% | 
41 | C=CCCC(CN1CCCOCC1)Oc1ccc2cccc(OC)c2n1 (configuration not stated) |  | active: 31.6 µM
42 | CCc1nnc2c(N3CCN(c4cccc(C)c4)C(C)C3)nc3ccccc3n12 (configuration not stated) |  | inconclusive: 39.8 µM [inhibitor, partial curve, poor fit]
43 | CCCn1c(CN2CCN(C(=O)OCC)CC2)nc2cc(NC(=O)c3ccc(Cl)cc3)ccc21 | inactive: -5.52% | 
44 | O=C1CCC(C(=O)OC2CCOC2=O)=NN1 (configuration not stated) | inactive: -8.47% | 
45 | Cc1cccc(S(=O)(=O)Nc2cccc(-c3ccc(N4CCCCC4)nn3)c2)c1 |  | inconclusive: 25.1 µM [inhibitor, single point]
46 | Cc1cc(C)c(C)c(S(=O)(=O)NC2CCN(c3ccc(=O)n(CC4CC4)n3)CC2)c1C |  | active: 35.5 µM
47 | COc1ccc(C)cc1-n1ccnc1SCC(=O)Nc1nc(C)cs1 | inactive: -10.3% | 
